According to PubChem BioAssay (NCI):
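How tested: cells in 96-well plates exposed to compound for 48 hours at five concentrations. The concentration for 50% growth inhibition is given as GI50. TGI: total growth inhibition.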

System: NCI-H322M lung
Experiment: NCI-60 cell line screen, 48 h

SMILES | TGI [µM] | GI50 [µM]
[O-][n+]1nc(N2CCOCC2)nc2ccccc21 | > 100 | 
Cc1ccc(-c2c(C#N)c(-c3ccccc3)n(NS(=O)(=O)c3ccc(C)cc3)c(=O)c2C#N)cc1 | > 100 | 
CCOC(=O)C1(CO)CSCCSC1 | > 100 | 
C=C(C)C1CC=C(C)C(=O)C1 (stereo not drawn) | > 100 | 
CCOC(=O)NC(=O)c1cn(CCOCCOC(=O)NCCCCCCNC(=O)OCCOCCn2cc(C(=O)NC(=O)OCC)c(=O)[nH]c2=O)c(=O)[nH]c1=O | > 100 | 
Cc1cn2c(/C=C3/C(=O)N(C)c4ccccc43)c(C)nc2s1 | > 100 | 63.7
CCN(CCCl)c1cc(CN(C)C)cc(NC(=O)c2ccc(C(=O)Nc3cc(CN(C)C)cc(N(CC)CCCl)c3)cc2)c1 | 4.26 | 
Cc1cccc(NC(=O)C(=O)Cc2nc3ccccc3[nH]c2=O)c1C | > 100 | 
O=C1c2c(Br)sc(Br)c2C(NC(=O)C(F)(F)F)C1O (stereo not drawn) | 42.2 | 
CC(=O)Nc1ccc(-c2nc3ccccc3s2)cc1Br | > 100 | 
NC(=S)N/N=C/c1ccc(OC(=O)COc2ccc(Cl)cc2)cn1 | > 100 | 8.49
CN(C)CCn1c(=O)c2ccc(NCCNCCO)c3c(=O)c4ccccc4n(c1=O)c23 | 11.2 | 
O=C(N/N=C/c1cccc(O)c1O)c1ccccc1 | > 100 | 2.19
CCN(CC)c1sc(N(CC)CC)c2c1SSSSS2 | 4.15 | 2.09
CCSc1nnc(Sc2c3ccccc3nc3ccccc23)s1 | 43.8 | 
COC(=O)c1cccc2cccc(C(=O)Nc3ccc(C)cc3C)c12 | > 100 | 
CC(=O)OC1CC(O)C23COC(O)C1(C)C2CC(O)C1(C)C3C(=O)C(O)C2(C)C(c3ccoc3)CC3OC321 (stereo not drawn) | > 100 | 20.7
OCC1OC(NC(=S)NCCC(F)(F)C(F)(F)C(F)(F)C(F)(F)C(F)(F)C(F)(F)F)C(O)C(O)C1O (stereo not drawn) | > 100 | 
O=c1cccccc1NCCCNc1cccccc1=O | > 100 | 
COc1ccc(CNc2ccn(C3OC(CO)C(O)C3O)c(=O)n2)cc1 (stereo not drawn) | > 100 | 
CN(C)CCNC(=O)c1cccc(C(=O)Nc2ccccc2)c1[N+](=O)[O-] | > 100 | 

SMILES | TGI [µM] | GI50 [µM]
N#Cc1nc(C2OC(COC(=O)c3ccccc3)C(OC(=O)c3ccccc3)C2OC(=O)c2ccccc2)oc1N (stereo not drawn) | > 100 | 
CC(=O)C(C(=O)c1ccc(C)cc1)[C@@H]1OC(C)(C)O[C@@H]1[C@H]1COC(C)(C)O1 (stereo partly drawn) | 65.7 | 
CN(C)c1ccc(N)cc1 | 36.6 | 5.02
Cc1c2c(cc3c1C(=O)C(=O)C([C@@H](C)CO)=C3O)C(C)(C)CCC2 | > 100 | 
Cn1cc(C(=O)c2ccccc2)ccc1=O | > 100 | 
COc1ccc(C(=O)c2cc(C)c(OC)c(C)c2)c(OC)c1N(C(=O)C(Cl)Cl)C(=O)C(Cl)Cl | > 100 | 0.0625
COC(=O)C1=NC(=S)NC(c2ccccc2)C1c1nc2ccccc2s1 (stereo not drawn) | > 100 | 
COC(=O)Nc1nc2ccc(Oc3ccc(NC(=O)Nc4ccccc4)cc3)cc2[nH]1 | > 15.5 | 0.812
C[N+]12CCCCC1C(COc1cccc3cccnc13)CCC2 (stereo not drawn) | > 100 | 
CC(=O)c1c(-c2ccc(Cl)cc2)c(-c2ccc(Cl)cc2)n[nH]c1=O | > 100 | 
Nc1ccc(/C=C/c2ccnc3ccccc23)cc1 | > 100 | 
O=c1[nH]c2cccc([N+](=O)[O-])c2c(=O)n1-c1ccc(Cl)cc1 | 33.9 | 
CCCCN=C(N)c1ccc(OCCSCCOc2ccc(C(N)=NCCCC)cc2)cc1 | > 100 | 11.6
CCN(CC)CCCC(C)Nc1c(C)cnc2cc(Cl)c(C)cc12 (stereo not drawn) | 28 | 13.8
CC(C)N(C(=O)C12CC3CC(CC(C3)C1)C2)C(C)C | > 50 | 
CSC1=N/C(=C\c2ccc(C)cc2)C(=O)N1 | > 100 | 
COC(=O)c1ccccc1/C=C1\Cc2c(C)c3c(c(C)c2C1=O)CCC3 | > 100 | 
CC1=NN(c2ccccc2)C2(C1)C(Cl)C(=O)N2c1nc2ccccc2s1 (stereo not drawn) | > 100 | 
O=C(Nc1ccc(Cl)cc1)c1cc(-c2ccc(F)cc2)c2sc(=O)[nH]c2n1 | 6.12 | 2.11
CCS(=O)(=O)c1ccc(OC)c(Nc2ncc(-c3cccc(OC)c3)o2)c1 | > 25 | 11.1
